First the molecules themselves.
B1: LINE1-full (parent)
chain: UACGUAGGUGGUUUUCCCCUGAUAGUGCUAAGGGGGCCUGGAAGUUUGGACUGGGCAGAGCUCAACACAGCGUGGCAAAGUGGCUGUGGCUAGACUGCCUCUCUGGAUUCCUCGUCACUCAGCAGGGCAUCUCUGAGAGAAAUGCC

This note sets out measurements from the RNAGym collection of RNA variant scans (doi:10.7554/elife.90254).

The source gives no read counts; variants with many changes may rest on few reads.

In the data set the parent is B1. The data set can be described thus: self-cleavage, relative activity (ratio to wild type); higher = more cleavage; in vitro, sequencing; the parent is a self-cleaving ribozyme.
Regarding A24U A140G U143C, the self-cleavage came out at 1.12.

As to U23C U108C G126A U132C, the self-cleavage was determined as 1.87. As to A24U A42G U62C C120U A141G U143C, the self-cleavage was 0. Consider U23C C38U A92G U96C, for which the self-cleavage worked out at 0.13.

As for U23A C90U U96A U115A, the self-cleavage worked out at 0.13. The result for A22U A140G A141G reads 1.87. The result for A22U A30G G49U reads 0.77; that for A24U A124G A138U A141G, 1.57. In the case of U23C G41A U45C A65G U102A, the self-cleavage was 0.11.

For the variant A22U G34C A43U U52C A67U, the self-cleavage is 0.21. Next, U23C U26G U130C A140G: 0.37; A22G U73C U108C: 0. The result for U23C G54A A67U A124U reads 0.02; that for U23A C113A A142U, 0.39. The result for U23A A30U A69G A77G U96C A138G reads 0. On to A22U A121U U132C U134A, for which the self-cleavage came to 0.88.

With A22G U96C A121U A140G, the self-cleavage was 0.17. In the case of A22G U46A U62C U143G, the self-cleavage was determined as 0.07. Next, G25A U62C A64U: 0.01. For the variant A22U U104A U112A A136G, the self-cleavage amounted to 1.04. A22U U23C C120U C131U: the self-cleavage was determined as 1.47. Turning to U23A U102A A141G, the self-cleavage was 1.39.

With A24U C28G A69U U81C A94U U130A A138G, the self-cleavage was 0.32. The result for A24U G75U U115A A129U A140G reads 0.57; that for A22G U87C A136G, 0.29; that for U23C A79G A94U U96C U109A A141G, 0.17. Turning to U23C U39C A59G U62C A142G, the self-cleavage was 0. For U23C A31G A67U, the self-cleavage was 0.11. Next, U23C A107U A124U: 0.67; A24G A69G U104C A138G: 0; A22G U47C G105A: 1.02.

As to A22U G35A A64U A92G, the self-cleavage was found to be 0.05. The result for U23C C38G U52A A129C A141G reads 1.73. As to A24U A64G A78G A121G, the self-cleavage was 0.79. In the case of A22G U132A A142G, the self-cleavage is 1.41.

On to A22U A57G U109A, for which the self-cleavage turned out to be 0.27.

Regarding U23C A57G U130A, the self-cleavage was 1.58.

Regarding U23A A129G A141G, the self-cleavage worked out at 1.55. Next, A22G U109C A117U A140U: 1.1; U23A A79G U115C: 0.8. A24U A30G U45C: the self-cleavage worked out at 0.38. In the case of A22U A31G U96C G127A, the self-cleavage was 0.2. The result for U23C C28U U62C A79G reads 0.08. Consider A24U U45C U46C U132C, for which the self-cleavage was determined as 0. U23A U109C U115C: the self-cleavage turned out to be 0.56. The result for U23C A30U G44A A59G reads 2.4; that for U23C U26A A67G, 0.2. As for U23A U46A A50U, the self-cleavage was 0.9. For U23C A79G C98U, the self-cleavage amounted to 0. For A24U A65G A79U U87C C110U A129G U132C, the self-cleavage amounted to 0. Next, A24G G49U A50G A64U A77U U112C: 0.14; A24G A65C A142G: 0. Regarding G25A U100C G105U, the self-cleavage is 1.21.

As for A22G U87A A94G U104C, the self-cleavage was found to be 0. Consider U23C U115C U130C, for which the self-cleavage worked out at 0.

Regarding U23C A43U C76G A140G, the self-cleavage worked out at 1.31. U23C U26A A69G A129U A138G U143A: the self-cleavage was 0.57.

As for A22U A43U U45C A69U, the self-cleavage was 0.15. As for A22U U104G A142G, the self-cleavage worked out at 2.63. Next, A22U A42G A77U A141U: 1.06; A22U A69G A117U: 0.65. The result for A24U U46C U104A U112A reads 1.88. Next, U23A U108C A124G U130C: 0; A22G U46C U115A: 1.99. As to A22U G55A U73C U109C, the self-cleavage was 0.13.

Consider A24C U62C A121U, for which the self-cleavage is 0.04. As to U23C A57G A77U U112C A138G, the self-cleavage was 0.51. On to G25U A59G U81C, for which the self-cleavage came to 0. For the variant A22U A50G U73C U132C, the self-cleavage stood at 0.71.

For A24C G41A U143C, the self-cleavage turned out to be 0.97.

For U23C U47C U87C A124U, the self-cleavage is 0.

On to U23C A69G U100C A136G, for which the self-cleavage stood at 0.54. Next, U23C U52C U85C: 0.29; A24G A50G U102C: 0; A22G U46C U96C: 0.48. Regarding U23C A30U U85A, the self-cleavage was 0.07. As for A24G U62C U81G C113U, the self-cleavage stood at 0.12.

Take A22U A24G U112C: the self-cleavage amounted to 0.9. Next, A24C U62C G83A: 0; A24U A64U U115C A140G: 0.

In the case of A22U G27A A64G G82U A94G A129G, the self-cleavage turned out to be 0.05.

Take A22G U39C U46C G126A: the self-cleavage was 1.07.

With A24G U52A A117G A129G, the self-cleavage came out at 0.68. The result for A22U U39A U52G U85A A140G reads 0.12; that for U23C C66U U115C A124U, 0.07. As to A24G U47C A78G U81C C90U A117G, the self-cleavage amounted to 0. On to A24G G36C A107G C145A, for which the self-cleavage came out at 1.23. On to A24G U73C C146A, for which the self-cleavage was determined as 2.63.

As for U23C U39A A124C, the self-cleavage came out at 1.37. The result for A24G A65G U85C U100C G105A U112C U115A C116U reads 0; that for A22G U45A A124U, 1.08. Next, A22U U23A C56U A69G U134C: 0.06; A24U A57U A77G G105A U132C: 0.29.

Consider U23C U46A A140G, for which the self-cleavage stood at 1.09. For the variant A22G U39C A140U, the self-cleavage came to 1.46.

Regarding U23C U96G U109C, the self-cleavage is 0.71. Next, A22U G135A A136C: 1.49; A22U U47A U104A U115A A121G A140G: 0.53; A24G A57G A59U U130C G139C: 1.5. As to U23A A42G A136U, the self-cleavage came to 0.84. Consider U23A G82C A138U, for which the self-cleavage was found to be 2.

As to U23C G53A C66U A77G U115C A136G, the self-cleavage came out at 0.02. For the variant A24G U39C A57G, the self-cleavage was 1.53. Next, U23C U29C A67U U91C C111A A142G: 0; U23C U26G U134G A140U: 0.94; U23A A31G A94G: 0.5. U23C A65G G126U: the self-cleavage turned out to be 0.02. For U23A U26A A64G A141G, the self-cleavage was found to be 0.15.

With A22U G49A A50G A79G, the self-cleavage came out at 0.52. Take U23C U26C U104A: the self-cleavage turned out to be 1.23.

On to A22G U39G A59U A79G U134C, for which the self-cleavage was determined as 1.84. The result for A22G U47C A78G reads 0.63; that for A24U A43G U45A U85C U108A C133U, 0.34. As to A24G A59G G105A, the self-cleavage amounted to 0.12. The result for A24G U46C A141G U143A reads 1.25. The result for A24G U26A A69U reads 0.05. With A24U U100C U112C, the self-cleavage was found to be 0.

Take U23A U115G U119C: the self-cleavage is 2.4. For the variant A24U U45C U115C, the self-cleavage worked out at 1.11. Next, U23C U26C U62C A69C C76A U100C A140G: 0; A24G U29A U143C: 0.66; A24G A43G A107G: 0.68.

On to U23C U52A U62A U132C, for which the self-cleavage turned out to be 0. For the variant A24G A57U A77U U81A A94C, the self-cleavage was 0.09. Next, A22U U81A C90U: 0.05; A24U A59G A129U A142G: 0.04; A22U A50U U87C U134C A138U: 0.53.

For U23A C76U U119C, the self-cleavage came to 0.95. Take A22G U46C U112C: the self-cleavage came out at 2.04. For A22G U52C A69U, the self-cleavage was 0.05.

Consider A24G A59U A124U, for which the self-cleavage was found to be 0.56. With U23A U104C A136G, the self-cleavage amounted to 0.

As for A24G U52C U119C, the self-cleavage amounted to 2.68. Turning to A24U C61U A69G, the self-cleavage was 0.04. For the variant A22G U39C G41A A79G, the self-cleavage came out at 0.46.

A22U G35U U132A A142U: the self-cleavage was found to be 1.56. On to A24U U45C U46C G74A U130C, for which the self-cleavage is 2.2. Consider A24U A69U A79G U81A U100C, for which the self-cleavage amounted to 0.22. With U23C U104C U115A A129G A141G, the self-cleavage was 0.57. Take A22G U47C A64C C101U: the self-cleavage was determined as 0.55. Next, U23C A42G A69G: 0.86; A22U A64U U87C U96C U132C: 0. For the variant G25A G60A C113A A121U, the self-cleavage came out at 0.03. Next, A24G A67G U134A: 0.66; A24G U85C G88A: 0.11. The result for A24G U62C U134C reads 0.08; that for A22G U91C U115A, 0.38.

With U23C A31U U87C, the self-cleavage came out at 0. Turning to A22G U45C A50U G127A A138C A141G, the self-cleavage is 1.84. Turning to A22G U87A U91A U112C A121G, the self-cleavage came to 0.39.

Consider A24G U52A A138G, for which the self-cleavage came to 1.15.

With A22G U47C U115A U134C, the self-cleavage was found to be 1.49.

For A22U A31G C84G A141G, the self-cleavage was 0.18. The result for U23C A57G A78G A121C reads 0; that for U23C U100C U132A, 2.04; that for U23C A79G A107G A129G, 0. Turning to A22U U29A U39C A57U A79G U81A U102C, the self-cleavage stood at 0.09. A22U A24G A78G: the self-cleavage came out at 0.72. Next, U23C U46A U87A G127U A138G: 0.09; U23C A107G U115C U130C: 1.84; A22G U87C A129G U132C: 0. Consider U23C C56U A138G, for which the self-cleavage came to 0.97. Take A22G U39C A107G U134C: the self-cleavage turned out to be 1.23. The result for A24G U26C A140U reads 1.39; that for A22U A42G U115C G122A, 1.7; that for A24U U47C A64U A92C, 0.19.

In the case of A22G U39C U46A G82A, the self-cleavage amounted to 1.55.
